Measurements reported in the BET-seq Pho4 binding data (Le et al. 2018).
This is one part of the list. The energies were worked out here from pooled read counts, against the library average; single values are noisy.

What follows are sequences tested against T1, Pho4 (S. cerevisiae) (UniProt P07270) (assay: relative binding free energy (BET-seq); higher = weaker binding). Conditions: reference: library average.
T1 sequence: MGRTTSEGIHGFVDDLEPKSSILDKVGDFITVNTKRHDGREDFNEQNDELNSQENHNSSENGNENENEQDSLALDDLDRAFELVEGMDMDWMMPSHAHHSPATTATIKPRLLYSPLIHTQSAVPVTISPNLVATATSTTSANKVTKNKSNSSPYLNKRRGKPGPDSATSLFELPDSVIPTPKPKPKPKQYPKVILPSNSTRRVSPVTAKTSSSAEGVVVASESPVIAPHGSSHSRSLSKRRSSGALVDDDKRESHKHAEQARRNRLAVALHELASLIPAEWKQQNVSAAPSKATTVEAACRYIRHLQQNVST
For TCTATCACGTGGGGAG, the “relative binding free energy” value was -0.1 kcal/mol. In the case of TAATGCACGTGAAGGG, the “relative binding free energy” value is reported as 0.22 kcal/mol. With GGTTTCACGTGATGCG the “relative binding free energy” value was 0.35 kcal/mol. With TCGGTCACGTGCGGGA the “relative binding free energy” value was 0.04 kcal/mol. For TTTTGCACGTGTAGAA, the “relative binding free energy” value was -0.03 kcal/mol. In the case of CCGGGCACGTGGTAGT, the “relative binding free energy” value is reported as -0.19 kcal/mol. CGGTGCACGTGGGTCT was tested, and the “relative binding free energy” value was -0.02 kcal/mol. In the case of TATTGCACGTGGCGTT, the “relative binding free energy” value is reported as -0.15 kcal/mol. With TTCTGCACGTGTGCGG the “relative binding free energy” value was 0.11 kcal/mol. In the case of GGGAGCACGTGCATGG, the “relative binding free energy” value is reported as -0.18 kcal/mol. ATGTGCACGTGTTGTC was tested, and the “relative binding free energy” value was 0.07 kcal/mol. For GTGGGCACGTGTAGGA, the “relative binding free energy” value was 0.04 kcal/mol. TTTCGCACGTGACGGG was tested, and the “relative binding free energy” value was 0.01 kcal/mol. In the case of TTCAGCACGTGAGGAT, the “relative binding free energy” value is reported as 0.24 kcal/mol. GTGGTCACGTGTATGC was tested, and the “relative binding free energy” value was 0.08 kcal/mol. For GAAGGCACGTGTGCGG, the “relative binding free energy” value was -0.18 kcal/mol. For AGTCGCACGTGATTGT, the “relative binding free energy” value was 0.09 kcal/mol. With GATTACACGTGGGGCT the “relative binding free energy” value was 0 kcal/mol. In the case of ATACGCACGTGGTTTA, the “relative binding free energy” value is reported as -0.1 kcal/mol. In the case of ATAATCACGTGAGTTG, the “relative binding free energy” value is reported as 0.28 kcal/mol. In the case of ATATTCACGTGCGCGT, the “relative binding free energy” value is reported as 0.24 kcal/mol. For TGGAGCACGTGTCAGA, the “relative binding free energy” value was -0.04 kcal/mol. In the case of ACTGGCACGTGCGTGG, the “relative binding free energy” value is reported as -0.26 kcal/mol. In the case of TTTGTCACGTGCCTGT, the “relative binding free energy” value is reported as -0.02 kcal/mol. In the case of ATTGACACGTGGCTTT, the “relative binding free energy” value is reported as -0.18 kcal/mol. In the case of TGTTTCACGTGAGCTG, the “relative binding free energy” value is reported as 0.4 kcal/mol. TTTAACACGTGTCTGA was tested, and the “relative binding free energy” value was -0.01 kcal/mol. In the case of GGTAGCACGTGGTAAT, the “relative binding free energy” value is reported as -0.16 kcal/mol. With GACGGCACGTGTGCGG the “relative binding free energy” value was -0.14 kcal/mol. For ACTGGCACGTGGTTTA, the “relative binding free energy” value was -0.11 kcal/mol. For AAGTGCACGTGGTAAT, the “relative binding free energy” value was 0.02 kcal/mol. AAGTGCACGTGCATTG was tested, and the “relative binding free energy” value was 0 kcal/mol. With GATTGCACGTGGGGTT the “relative binding free energy” value was -0.08 kcal/mol. TGAGTCACGTGGTGAA was tested, and the “relative binding free energy” value was 0.09 kcal/mol. In the case of AAGGTCACGTGCAAGG, the “relative binding free energy” value is reported as 0.15 kcal/mol. AAGGGCACGTGATGGA was tested, and the “relative binding free energy” value was -0.05 kcal/mol. In the case of TTCGTCACGTGTGGCT, the “relative binding free energy” value is reported as 0.18 kcal/mol. For AAGCGCACGTGCGGGG, the “relative binding free energy” value was -0.21 kcal/mol. In the case of TTAGTCACGTGCGGAA, the “relative binding free energy” value is reported as 0.13 kcal/mol. With CTGGACACGTGGGGCT the “relative binding free energy” value was -0.08 kcal/mol. With TTGGGCACGTGCCCGG the “relative binding free energy” value was -0.3 kcal/mol. With ATATACACGTGAGTTA the “relative binding free energy” value was 0.2 kcal/mol. In the case of ATGTACACGTGATATA, the “relative binding free energy” value is reported as 0.17 kcal/mol. In the case of TGTGTCACGTGTTTTT, the “relative binding free energy” value is reported as 0.17 kcal/mol. In the case of ATTATCACGTGTTAAG, the “relative binding free energy” value is reported as 0.19 kcal/mol. For ACGTACACGTGGTAGG, the “relative binding free energy” value was 0.02 kcal/mol. For TCGGGCACGTGGAGTG, the “relative binding free energy” value was -0.07 kcal/mol. GGAAACACGTGGGAGT was tested, and the “relative binding free energy” value was 0 kcal/mol. AGGGACACGTGCATGG was tested, and the “relative binding free energy” value was 0.06 kcal/mol. With GTATTCACGTGGGGAT the “relative binding free energy” value was 0.15 kcal/mol. In the case of AGTTCCACGTGGAGTG, the “relative binding free energy” value is reported as 0.1 kcal/mol. In the case of GATGGCACGTGGACAG, the “relative binding free energy” value is reported as -0.07 kcal/mol. With CTCTGCACGTGGGGGT the “relative binding free energy” value was -0.14 kcal/mol. For GATGTCACGTGAGGCG, the “relative binding free energy” value was 0.22 kcal/mol. With TATCTCACGTGGAGGG the “relative binding free energy” value was 0.23 kcal/mol. TGTGGCACGTGTATCT was tested, and the “relative binding free energy” value was -0.14 kcal/mol. GGTTTCACGTGCCGTT was tested, and the “relative binding free energy” value was 0.4 kcal/mol. In the case of CGCGGCACGTGGATGT, the “relative binding free energy” value is reported as -0.09 kcal/mol. With TGGATCACGTGTGGTG the “relative binding free energy” value was 0.13 kcal/mol. In the case of AATTGCACGTGCTGTA, the “relative binding free energy” value is reported as -0.12 kcal/mol. For TCTAGCACGTGAGGTA, the “relative binding free energy” value was 0.18 kcal/mol. In the case of CTATACACGTGGGTGT, the “relative binding free energy” value is reported as -0.2 kcal/mol. With CAGTACACGTGGCGGG the “relative binding free energy” value was -0.09 kcal/mol. TCAGTCACGTGGCTGG was tested, and the “relative binding free energy” value was 0.06 kcal/mol. In the case of AAAGGCACGTGTGTAT, the “relative binding free energy” value is reported as 0.07 kcal/mol. TGAGTCACGTGGCAGA was tested, and the “relative binding free energy” value was 0.15 kcal/mol. In the case of AGGGGCACGTGTTTGT, the “relative binding free energy” value is reported as -0.09 kcal/mol. ATTAACACGTGCTGTA was tested, and the “relative binding free energy” value was 0.04 kcal/mol. With GGTCTCACGTGGCTGG the “relative binding free energy” value was 0.16 kcal/mol. GACGACACGTGGGGGC was tested, and the “relative binding free energy” value was 0.12 kcal/mol. For TGTGACACGTGAGGTG, the “relative binding free energy” value was 0.16 kcal/mol. For TTTATCACGTGAGATG, the “relative binding free energy” value was 0.32 kcal/mol. In the case of ATCAGCACGTGTTTTG, the “relative binding free energy” value is reported as -0.07 kcal/mol. With ATGCTCACGTGTGGGA the “relative binding free energy” value was 0.13 kcal/mol. For GTAGCCACGTGTATTT, the “relative binding free energy” value was 0.07 kcal/mol. With ATCTGCACGTGGAGTG the “relative binding free energy” value was 0.12 kcal/mol. In the case of GCTTACACGTGGCGTG, the “relative binding free energy” value is reported as 0.16 kcal/mol. In the case of GGGGTCACGTGCTTAT, the “relative binding free energy” value is reported as -0.01 kcal/mol. In the case of AACGGCACGTGGGGGA, the “relative binding free energy” value is reported as -0.26 kcal/mol. With TGTGTCACGTGTCGAA the “relative binding free energy” value was -0.01 kcal/mol. In the case of GTAATCACGTGGAGGT, the “relative binding free energy” value is reported as 0.27 kcal/mol. For CGTATCACGTGAGAGG, the “relative binding free energy” value was 0.27 kcal/mol. TAGTGCACGTGAGGTT was tested, and the “relative binding free energy” value was 0.22 kcal/mol. With TTTCTCACGTGTAGGT the “relative binding free energy” value was 0.26 kcal/mol. In the case of GTAGTCACGTGTGTTG, the “relative binding free energy” value is reported as 0.08 kcal/mol. For GTCAGCACGTGGTGTG, the “relative binding free energy” value was -0.05 kcal/mol. With GCTGTCACGTGGTGGC the “relative binding free energy” value was 0.06 kcal/mol. AGGGGCACGTGTTAAG was tested, and the “relative binding free energy” value was -0.08 kcal/mol. GCGTTCACGTGGGTAT was tested, and the “relative binding free energy” value was 0.23 kcal/mol. TTGGACACGTGGCATT was tested, and the “relative binding free energy” value was 0.03 kcal/mol. GATGGCACGTGTGTGT was tested, and the “relative binding free energy” value was 0.01 kcal/mol. With TGCATCACGTGGGTTG the “relative binding free energy” value was 0.09 kcal/mol. GTTAGCACGTGGTGAC was tested, and the “relative binding free energy” value was -0.1 kcal/mol. In the case of TTGGCCACGTGTTGAT, the “relative binding free energy” value is reported as -0.13 kcal/mol. TTTAACACGTGCGAGG was tested, and the “relative binding free energy” value was -0.01 kcal/mol. With GGAATCACGTGTTTCG the “relative binding free energy” value was 0.25 kcal/mol. For GTCATCACGTGGGGTA, the “relative binding free energy” value was 0.02 kcal/mol. In the case of CTTTACACGTGTGTTT, the “relative binding free energy” value is reported as 0.07 kcal/mol. For TTGAACACGTGGGGTG, the “relative binding free energy” value was -0.18 kcal/mol. With AGAGGCACGTGGTGGA the “relative binding free energy” value was -0.14 kcal/mol. In the case of GGTGTCACGTGATGCG, the “relative binding free energy” value is reported as 0.23 kcal/mol. In the case of TATAACACGTGGGAAA, the “relative binding free energy” value is reported as -0.02 kcal/mol. With GCGGGCACGTGAAGCG the “relative binding free energy” value was 0.32 kcal/mol. GACTGCACGTGGTTAG was tested, and the “relative binding free energy” value was 0.04 kcal/mol. For AGTAGCACGTGTACTT, the “relative binding free energy” value was 0.1 kcal/mol. With ATGTACACGTGATTAG the “relative binding free energy” value was 0.21 kcal/mol. For GTATTCACGTGAGAGT, the “relative binding free energy” value was 0.32 kcal/mol. For GTGAGCACGTGGGACA, the “relative binding free energy” value was -0.18 kcal/mol. For ATTTGCACGTGCTGGT, the “relative binding free energy” value was 0.03 kcal/mol. For AGAGGCACGTGTTCGG, the “relative binding free energy” value was -0.2 kcal/mol. With TCTTACACGTGTTAGT the “relative binding free energy” value was 0.25 kcal/mol. In the case of CTCATCACGTGGTTGG, the “relative binding free energy” value is reported as 0.09 kcal/mol. TTTACCACGTGTAGGT was tested, and the “relative binding free energy” value was 0.09 kcal/mol. For GGTTTCACGTGGAAAT, the “relative binding free energy” value was 0.45 kcal/mol. GATGTCACGTGGTACT was tested, and the “relative binding free energy” value was 0.16 kcal/mol.
